The supplement of paper PMC4967469
By IC50 is meant the dose at which the fit gives 50% viability; a limit (>, <) means that the fit lies beyond the doses tested. AUC, from the same fit, is the share of area under the viability curve across the 256-fold dose range; the more sensitive the line, the further below 1. The top dose, if marked as inferred, is not printed in the source and was worked back from the curve model. For some of these results: An entry number marks a drug with two screens in the source, which often give different values.

Key:
Test in all cases: Viability of human cancer cell lines after 72 h of drug (GDSC screen)
[1] = compound: Cc1cc([C@@H](C)Nc2ccccc2C(=O)O)c2nc(N3CCOCC3)cc(=O)n2c1 [AZD6482]
Protocol: (§1)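 Human cancer cell lines in 384-well plates, medium with 10% serum, drug for 72 h over a 256-fold dose range (nine 2-fold or five 4-fold steps up to the top dose). Adherent lines were fixed and stained with the nucleic acid dye Syto60, suspension lines read with resazurin; signal relative to control wells, capped at 0 and 100%. One two-parameter sigmoid per drug and line, fitted in a mixed model over all curves with the slope shared within a line.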

[2] = compound: NS(=O)(=O)OC[C@@H]1C[C@@H](n2ccc3c(N[C@H]4CCc5ccccc54)ncnc32)C[C@@H]1O [MLN4924]; conditions: top dose 1 µM; top dose inferred
Protocol: as §1

[3] = compound: Cn1ncnc1[C@H]1c2n[nH]c(=O)c3cc(F)cc(c23)N[C@@H]1c1ccc(F)cc1 [BMN-673]; conditions: top dose 10 µM; top dose inferred
Protocol: as §1

[4] = top dose 5 µM, screen: GDSC drug entry 1066, top dose inferred
[5] = top dose 5.12 µM, screen: GDSC drug entry 156

Row | Cell Line | AUC [1, 4] | IC50 [1, 4] [nM] | AUC [1, 5] | IC50 [1, 5] [nM] | AUC [2] | IC50 [2] [nM] | AUC [3] | IC50 [3] [nM]
1 | 42-MG-BA (glioma, adherent) | 0.782 | 2240 | 0.805 | 2790 | 0.764 | 387 | 0.771 | 4090
2 | 647-V (bladder, adherent) | 0.885 | > 5000 | 0.873 | 4990 | 0.529 | 75 | 0.462 | 492
3 | 697 (lymphoblastic leukaemia, suspension) | 0.845 | 2580 | 0.869 | 3210 | 0.884 | 713 | 0.117 | 55.3
4 | 769-P (kidney, adherent) | 0.822 | 3270 | 0.908 | > 5120 | 0.863 | > 1000 | 0.625 | 1430
5 | 786-0 (kidney, adherent) | 0.788 | 2000 | 0.688 | 1030 | 0.771 | 353 | 0.911 | > 10000
6 | 5637 (bladder, adherent) | 0.962 | > 5000 | 0.976 | > 5120 | 0.739 | 278 | 0.78 | 3700
7 | 23132-87 (stomach, adherent) | 0.709 | 1250 | 0.839 | 3680 | 0.909 | > 1000 | 0.789 | 4600
8 | A3-KAW (B-cell lymphoma, suspension) | 0.993 | > 5000 | 0.973 | > 5120 | 0.713 | 215 | 0.718 | 2220
9 | A4-Fuk (B-cell lymphoma, suspension) | 0.84 | 3650 | 0.801 | 2630 | 0.872 | > 1000 | 0.914 | > 10000
10 | A172 (glioma, adherent) | 0.911 | > 5000 | 0.949 | > 5120 | 0.639 | 149 | 0.735 | 2830
11 | A204 (rhabdomyosarcoma, adherent) | 0.781 | 2720 | 0.775 | 2650 | 0.807 | 707 | 0.669 | 2140
12 | A431 (skin, adherent) | 0.923 | > 5000 | 0.817 | 2700 | 0.811 | 505 | 0.9 | > 10000
13 | ACHN (kidney, adherent) | 0.758 | 1960 | 0.927 | > 5120 | 0.865 | > 1000 | 0.98 | > 10000
14 | AM-38 (glioma, semi-adherent) | 0.911 | > 5000 | 0.97 | > 5120 | 0.981 | > 1000 | 0.972 | > 10000
15 | AN3-CA (endometrium, adherent) |  |  | 0.84 | 4020 | 0.862 | 995 | 0.936 | > 10000
16 | ARH-77 (myeloma, suspension) | 0.988 | > 5000 | 0.823 | 2880 | 0.813 | 516 | 0.673 | 1860

Row | Cell Line | AUC [1, 4] | IC50 [1, 4] [nM] | AUC [1, 5] | IC50 [1, 5] [nM] | AUC [2] | IC50 [2] [nM] | AUC [3] | IC50 [3] [nM]
17 | BALL-1 (B-cell leukaemia, suspension) | 0.989 | > 5000 |  |  | 0.978 | > 1000 | 0.663 | 1550
18 | BB49-HNC (head and neck, adherent) |  |  |  |  | 0.876 | > 1000 | 0.657 | 2050
19 | BC-1 (B-cell lymphoma, suspension) | 0.978 | > 5000 | 0.936 | > 5120 | 0.654 | 155 | 0.861 | 6490
20 | BCPAP (thyroid, adherent) | 0.904 | > 5000 | 0.927 | > 5120 | 0.827 | 537 | 0.826 | 5320
21 | BE2-M17 (neuroblastoma, adherent) | 0.966 | > 5000 | 0.979 | > 5120 | 0.986 | > 1000 | 0.981 | > 10000
22 | BEN (non-small cell lung carcinoma, adherent) | 0.965 | > 5000 | 0.986 | > 5120 | 0.985 | > 1000 | 0.982 | > 10000
23 | BFTC-905 (bladder, adherent) | 0.877 | 3820 | 0.911 | > 5120 | 0.721 | 237 | 0.879 | 7840
24 | BFTC-909 (kidney, adherent) | 0.925 | > 5000 | 0.885 | > 5120 | 0.835 | 633 | 0.689 | 2090
25 | BHY (head and neck, adherent) | 0.911 | > 5000 | 0.847 | 3790 | 0.934 | > 1000 | 0.918 | > 10000
26 | BICR22 (head and neck, adherent) | 0.926 | > 5000 | 0.753 | 1940 | 0.694 | 240 | 0.633 | 1540
27 | BICR78 (head and neck, adherent) | 0.83 | 3830 | 0.952 | > 5120 | 0.72 | 294 | 0.873 | > 10000
28 | BPH-1 (prostate, adherent) | 0.778 | 2250 | 0.767 | 2100 | 0.821 | 660 | 0.773 | 4300
29 | BT-549 (breast, adherent) | 0.77 | 2680 |  |  | 0.793 | 671 | 0.945 | > 10000
30 | BV-173 (chronic myeloid leukaemia, suspension) | 0.932 | > 5000 | 0.986 | > 5120 | 0.675 | 180 | 0.157 | 66.3
31 | BxPC-3 (pancreas, adherent) | 0.91 | > 5000 | 0.786 | 2490 | 0.789 | 500 | 0.939 | > 10000
